Measurements published in PubChem BioAssay AID686979 (National Center for Advancing Translational Sciences (NCATS), 2013).
The whole screen tested about 420,000 compounds, of which about 50,000 (12%) were called active. Inconclusive results, whose numbers are uncertain, are shown with a selection of clear calls. Calls follow the shape of the dose curve; as a rule, active = well fitted inhibition curve with a large enough effect; inconclusive = small, poorly fitted or top-dose-only effect; inactive = flat fitted curve, though single readings scatter. No potency is given beside an inconclusive call; the fits are too rough.

assay: qHTS for Inhibitors of human tyrosyl-DNA phosphodiesterase 1 (TDP1): qHTS in cells in presence of CPT; conditions: chicken DT40 Tdp1-/-;hTDP1 cells + 20 nM CPT, ATP luminescence, 48 h; series mostly up to 46.2 µM; also: nearly all actives have a fitted effect of over 55% in size
How it was run: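 Chicken DT40 Tdp1-/- cells stably complemented with human TDP1 were seeded at 400 cells/well in medium containing 20 nM camptothecin, exposed to pin-transferred compounds, and grown at 37 °C for at least 48 hr. Viability was read as ATP luminescence.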
Potency is read from the fitted curve at half-maximal effect; tags tell the direction and shape of the fitted curve.

Compound	Potency
Cc1ccc(CCNC(=O)CCCn2c(=O)c3ccccc3n(Cc3ccccc3C#N)c2=O)cc1	inconclusive [inhibitor, single point]
CCC[C@@H](O)c1cc2cc(OC)c(OC)cc2c(=O)o1	inconclusive [inhibitor, single point]
CC1CCCN(C(=S)Nc2ccc3nc4n(c(=O)c3c2)CCCCC4)C1 (configuration not stated)	inactive
CO[C@H]1C=CO[C@@]2(C)Oc3c(C)c(O)c4c(O)c(c5c(nc6cc(C)ccn65)c4c3C2=O)NC(=O)/C(C)=C\C=C[C@H](C)[C@H](O)[C@@H](C)[C@@H](O)[C@@H](C)[C@H](OC(C)=O)[C@@H]1C	inconclusive [inhibitor, single point]
N#Cc1c(NCCCO)nc(-c2ccco2)c2c1CCCC2	inconclusive [inhibitor, single point]
CCCCCC(=O)N1CC2(C)CN(C(=O)CCCCC)CC(C)(C1)C2=O	inconclusive [inhibitor, single point]
Cc1ccc(Cl)cc1NC(=O)Cn1c(=O)n(Cc2ccccc2)c(=O)c2oc3ccccc3c21	inconclusive [inhibitor, single point]
O=[N+]([O-])c1ccc(C2=Nn3c(Cn4nnc5ccccc54)nnc3SC2)cc1	active: 20.6 µM
COC(=O)c1ccc(NC(=O)CSc2nc3cccnc3n2C)cc1	inconclusive [inhibitor, single point]
COC(c1ccccc1)c1c(-c2ccccc2)nn(C)c1Cl (configuration not stated)	active: 1.46 µM
Cc1c(Cl)cnc(NC(=O)COC(=O)C2CCCC2)c1Cl	inactive
COc1cccc(C(NC(C)=O)c2nc(-c3ccc4c(c3)OCO4)cs2)c1 (configuration not stated)	inconclusive [inhibitor, single point]
Cc1ccc(NC(=O)CN(C)CC(=O)Nc2c(C)cccc2C)c(Br)c1	inactive
CCc1ccc(NC(=S)Nc2cc(C(=O)O)ccc2N2CC3CC(C2)c2cccc(=O)n2C3)cc1 (configuration not stated)	inactive
Cc1ccc(S(=O)(=O)N2[C@@H](c3ccccc3)C(C(=O)O)=CC[C@H]2c2ccc(Cl)c(Cl)c2)cc1	inactive
O=C(Nc1cccc(F)c1)N1CCN(C/C=C/c2ccccc2)CC1	inactive
Cc1noc(C)c1C(=O)OCC(=O)Nc1cccc(S(N)(=O)=O)c1	inactive
CCN(CC)C(=O)Cn1cc(S(=O)(=O)CC(=O)Nc2ccccc2C)c2ccccc21	inactive
O=c1cc(O)n(-c2ccc(Cl)cc2)c(=S)[nH]1	inactive
CCc1ccc(O)c(C(=O)c2cnc3cc(-c4ccc(C)cc4)nn3c2)c1	inconclusive [inhibitor, partial curve]
Cc1cc(C)cc(NS(=O)(=O)c2ccc3[nH]cc(C(=O)NC4CCCCC4)c(=O)c3c2)c1	active: 23.1 µM
COc1ccc(Oc2ncc3ncc(=O)n(-c4ccc(OC)cc4)c3n2)cc1	inactive
Cc1ccc2cc(CN(CC(C)C)S(=O)(=O)c3cccc4nonc34)c(=O)[nH]c2c1	inactive
CCN1CC(CN(C)Cc2nc(Cc3ccccc3)no2)CC1=O (configuration not stated)	inactive

Compound	Potency
CSc1cccc(-c2nnc(NC(=O)c3cccc(N4C(=O)CCC4=O)c3)o2)c1	inactive
CCCNC(=O)NC(=O)CSc1nnc(-c2ccncc2)n1CC	inconclusive [inhibitor, single point]
COc1ccccc1CNC(=O)N[C@@H](Cc1ccccc1)C(=O)O	inactive
O=C(NCc1ccccc1)c1ccc(Cl)c(S(=O)(=O)N2CCCC2)c1	inactive
Cn1cc(CCC(=O)N2CCCC(C(=O)c3cccc4ccccc34)C2)cn1 (configuration not stated)	inconclusive [inhibitor, single point]
COc1ccc(Nc2nc3cc(-c4ccsc4)sc3c(=O)n2C)cc1OC	active: 13 µM
C/C(=N\NC(=O)c1c[nH]c2ccccc12)c1ccc(C)o1	inconclusive [inhibitor, partial curve, poor fit]
CCCC1C(=O)Nc2ccccc2N1C(=O)c1ccc(C(C)(C)C)cc1 (configuration not stated)	inconclusive [inhibitor, single point]
COc1ccc(-c2n[nH]c(=S)n2-c2ccccc2C)cc1	inactive
Cc1ccc(NC(=O)Cn2c(O)c(N=NC(N)=O)c3ccccc32)cc1	inconclusive [inhibitor, single point]
O=C(Nc1ccccc1)c1nnsc1S(=O)c1ccc(Cl)cc1 (configuration not stated)	active: 0.58 µM
Clc1ccc2ncc(-c3nnnn3-c3ccccc3)c(-c3ccccc3)c2c1	inconclusive [inhibitor, single point]
OCCC1CN(Cc2cccc(-n3cccn3)c2)CCN1Cc1ccccc1 (configuration not stated)	inactive
CC(=O)c1c(-c2ccccc2)c2cc([N+](=O)[O-])ccc2[nH]c1=O	inconclusive [inhibitor, single point]
CCN1CCCc2cc(CN(CCN3CCOCC3)C(=S)Nc3ccc(C)cc3)ccc21	active: 29.1 µM
CCNC(=O)C1(C)CCN1Cc1cc(-c2ccccc2)n(C)n1 (configuration not stated)	inconclusive [inhibitor, single point]
COC(=O)N1CCC2(CC1)CN(C(=O)Nc1ccccc1)C2	inactive
CCN1C(=O)N[C@@H](c2ccc(Br)cc2)C(C(=O)OC)=C1C	inconclusive [inhibitor, single point]
CC1Cc2ccccc2N1S(=O)(=O)c1cccc(C(=O)Nc2cccnc2)c1 (configuration not stated)	inconclusive [inhibitor, single point]
COc1ccc(-c2ccc3[nH]c4c(c3c2)CCN2C(=O)[C@@H]([C@H](C)O)[C@@H](N(C)C(=O)Nc3ccccc3)C[C@@H]42)cc1	active: 13 µM
CN1CCN(C(=O)CCN2C(=O)/C(=C\c3ccc(Cl)cc3Cl)SC2=S)CC1	active: 14.6 µM
CCOc1ccc(CCNC(=O)C(C)N2C(=O)CC(C)(C)Sc3ccccc32)cc1 (configuration not stated)	inconclusive [inhibitor, single point]
Cc1ccc(S(=O)(=O)Oc2ccc(/C=N/NC(=O)c3c(Cl)cnn3C)cc2)cc1	inactive
